In PMC4674823:
Results are given in words; binding and its absence hold for the method and conditions named. In cells and extracts the contact can be indirect. Some binding calls cover weakened binding; strength is not graded here. For some assays here: Tags and fused reporters may be left off the sequences shown.

Amino acid sequences for entries named in this document (tags omitted).
UniProt P54646: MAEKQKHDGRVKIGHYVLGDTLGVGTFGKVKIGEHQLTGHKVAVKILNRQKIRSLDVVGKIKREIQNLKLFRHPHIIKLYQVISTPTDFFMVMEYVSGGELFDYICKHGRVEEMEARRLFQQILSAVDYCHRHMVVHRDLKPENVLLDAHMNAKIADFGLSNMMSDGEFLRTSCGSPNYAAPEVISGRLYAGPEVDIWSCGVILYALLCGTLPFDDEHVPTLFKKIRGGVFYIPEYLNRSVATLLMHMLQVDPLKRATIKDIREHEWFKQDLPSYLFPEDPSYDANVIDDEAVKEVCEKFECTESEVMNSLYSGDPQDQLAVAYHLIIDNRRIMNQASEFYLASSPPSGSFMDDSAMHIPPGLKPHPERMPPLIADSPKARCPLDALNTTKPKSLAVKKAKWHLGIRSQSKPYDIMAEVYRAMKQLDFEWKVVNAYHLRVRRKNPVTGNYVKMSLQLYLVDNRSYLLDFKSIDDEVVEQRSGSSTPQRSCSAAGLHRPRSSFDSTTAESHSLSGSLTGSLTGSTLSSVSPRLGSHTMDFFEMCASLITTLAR
UniProt Q13131: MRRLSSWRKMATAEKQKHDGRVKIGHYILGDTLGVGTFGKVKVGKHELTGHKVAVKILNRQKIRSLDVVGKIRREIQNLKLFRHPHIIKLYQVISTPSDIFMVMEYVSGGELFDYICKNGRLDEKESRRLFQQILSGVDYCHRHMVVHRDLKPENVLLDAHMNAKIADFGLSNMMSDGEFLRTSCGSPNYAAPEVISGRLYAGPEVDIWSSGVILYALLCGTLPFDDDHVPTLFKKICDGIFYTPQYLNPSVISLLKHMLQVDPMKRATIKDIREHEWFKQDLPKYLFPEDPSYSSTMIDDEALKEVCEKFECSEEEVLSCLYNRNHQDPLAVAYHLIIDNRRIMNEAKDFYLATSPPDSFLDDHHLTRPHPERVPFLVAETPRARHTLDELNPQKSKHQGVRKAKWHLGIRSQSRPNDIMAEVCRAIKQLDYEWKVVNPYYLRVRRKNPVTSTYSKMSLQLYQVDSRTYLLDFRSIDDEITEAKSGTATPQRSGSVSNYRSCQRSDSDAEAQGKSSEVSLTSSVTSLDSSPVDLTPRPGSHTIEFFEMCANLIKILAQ
UniProt Q5EG47: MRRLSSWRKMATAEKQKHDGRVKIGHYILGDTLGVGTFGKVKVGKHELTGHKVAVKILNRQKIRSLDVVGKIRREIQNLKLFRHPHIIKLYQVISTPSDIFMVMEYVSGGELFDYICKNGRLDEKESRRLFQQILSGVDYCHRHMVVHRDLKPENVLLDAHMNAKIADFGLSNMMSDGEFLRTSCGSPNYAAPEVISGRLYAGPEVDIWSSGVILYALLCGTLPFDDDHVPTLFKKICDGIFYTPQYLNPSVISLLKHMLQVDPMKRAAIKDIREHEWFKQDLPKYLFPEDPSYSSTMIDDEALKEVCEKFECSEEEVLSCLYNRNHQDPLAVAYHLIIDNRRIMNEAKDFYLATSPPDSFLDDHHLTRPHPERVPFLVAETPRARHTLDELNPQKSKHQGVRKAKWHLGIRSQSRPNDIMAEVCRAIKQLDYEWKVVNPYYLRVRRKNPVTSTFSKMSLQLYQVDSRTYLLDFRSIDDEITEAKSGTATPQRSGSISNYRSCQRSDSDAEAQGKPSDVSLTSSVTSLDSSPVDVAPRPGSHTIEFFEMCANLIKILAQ
UniProt Q8BRK8: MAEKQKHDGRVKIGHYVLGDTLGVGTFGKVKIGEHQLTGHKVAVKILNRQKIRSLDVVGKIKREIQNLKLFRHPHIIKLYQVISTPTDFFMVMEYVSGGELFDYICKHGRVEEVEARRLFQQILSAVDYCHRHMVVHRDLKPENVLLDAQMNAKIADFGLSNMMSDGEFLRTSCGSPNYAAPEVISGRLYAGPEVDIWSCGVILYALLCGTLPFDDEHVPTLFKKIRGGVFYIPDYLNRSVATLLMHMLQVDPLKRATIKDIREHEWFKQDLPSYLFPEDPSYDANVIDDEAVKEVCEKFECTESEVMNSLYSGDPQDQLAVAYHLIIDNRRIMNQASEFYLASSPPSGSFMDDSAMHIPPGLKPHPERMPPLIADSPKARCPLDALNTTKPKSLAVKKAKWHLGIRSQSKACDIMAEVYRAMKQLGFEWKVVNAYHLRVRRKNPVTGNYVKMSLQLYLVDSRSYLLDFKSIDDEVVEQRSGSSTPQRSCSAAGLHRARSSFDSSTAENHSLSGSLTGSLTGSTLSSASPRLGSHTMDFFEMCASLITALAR
UniProt O88907: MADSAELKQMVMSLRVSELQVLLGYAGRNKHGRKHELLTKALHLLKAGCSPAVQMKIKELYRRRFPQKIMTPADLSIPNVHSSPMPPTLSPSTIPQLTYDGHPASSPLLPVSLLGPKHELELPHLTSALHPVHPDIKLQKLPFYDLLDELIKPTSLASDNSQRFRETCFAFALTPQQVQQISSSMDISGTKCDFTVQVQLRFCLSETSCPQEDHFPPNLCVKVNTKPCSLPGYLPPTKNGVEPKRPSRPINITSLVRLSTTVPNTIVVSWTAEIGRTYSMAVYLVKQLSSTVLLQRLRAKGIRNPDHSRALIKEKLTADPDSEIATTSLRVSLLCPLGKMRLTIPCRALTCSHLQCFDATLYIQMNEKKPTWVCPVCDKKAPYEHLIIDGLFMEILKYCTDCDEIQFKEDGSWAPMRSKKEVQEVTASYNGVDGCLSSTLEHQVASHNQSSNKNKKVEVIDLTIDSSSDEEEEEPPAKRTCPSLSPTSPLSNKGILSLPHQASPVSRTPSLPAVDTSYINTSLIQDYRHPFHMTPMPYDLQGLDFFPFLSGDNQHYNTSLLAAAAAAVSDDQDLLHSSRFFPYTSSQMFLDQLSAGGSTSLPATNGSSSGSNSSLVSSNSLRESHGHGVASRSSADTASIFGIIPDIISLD

B1: PIAS3 in HEK293 cells (pull-down with GST–AMPKα) (protein, UniProt O54714 1-628)
chain: MAELGELKHMVMSFRVSELQVLLGFAGRNKSGRKHELLAKALHLLKSSCAPSVQMKIKELYRRRFPRKTLGPSDLSLLSLPPGTSPVGSPGPLAPIPPTLLTPGTLLGPKREVDMHPPLPQPVHPDVTMKPLPFYEVYGELIRPTTLASTSSQRFEEAHFTFALTPQQLQQILTSREVLPGAKCDYTIQVQLRFCLCETSCPQEDYFPPNLFVKVNGKLCPLPGYLPPTKNGAEPKRPSRPINITPLARLSATVPNTIVVNWSSEFGRNYSLSVYLVRQLTAGTLLQKLRAKGIRNPDHSRALIKEKLTADPDSEVATTSLRVSLMCPLGKMRLTVPCRALTCAHLQSFDAALYLQMNEKKPTWTCPVCDKKAPYESLIIDGLFMEILNSCSDCDEIQFMEDGSWCPMKPKKEASEVCPPPGYGLDGLQYSAVQEGIQPESKKRVEVIDLTIESSSDEEDLPPTKKHCPVTSAAIPALPGSKGALTSGHQPSSVLRSPAMGTLGSDFLSSLPLHEYPPAFPLGADIQGLDLFSFLQTESQHYGPSVITSLDEQDTLGHFFQYRGTPSHFLGPLAPTLGSSHRSSTPAPPPGRVSSIVAPGSSLREGHGGPLPSGPSLTGCRSDVISLD
B2: PIAS4 in HEK293 cells (pull-down with GST–AMPKα) (protein, UniProt Q9JM05 1-507)
chain: MAAELVEAKNMVMSFRVSDLQMLLGFVGRSKSGLKHELVTRALQLVQFDCSPELFKKIKELYETRYAKKSAEPGPQAPRPLDPLALHSMPRTPLSGPTVDYPVLYGKYLNGLGRLPTKTLKPEVRLVKLPFFNMLDELLKPTELVPQSAEKLQESPCIFALTPRQVEMIRNSRELQPGVKAVQVVLRICYSDTSCPQEDQYPPNIAVKVNHSYCSVPGYYPSNKPGVEPKRPCRPINLTHLMYLSSATNRITVTWGNYGKSYSVALYLVRQLTSSDLLQRLKTIGVKHPELCKALVKEKLRLDPDSEIATTGVRVSLICPLVKMRLSVPCRAETCAHLQCFDAVFYLQMNEKKPTWMCPVCDKPAAYDQLIIDGLLSKILSECEGADEIEFLAEGSWRPIRAEKEPSCSPQGPILVLGTSDANGLAPASSTPGIGSGLSGPGSAGSGAGAAGSLENGKTGADVVDLTLDSSSSSEDEDEDEDDDEDEDEGPRPKRRCPFQKGLVPAC
B3: endogenous PIAS4 of immortalized MEFs (protein, UniProt Q9JM05 1-507)
chain: B2 chain

Columns and labels:
[1] = target: GST–AMPKα2 (human), expressed in HEK293 cells (human) (UniProt P54646); experiment: pull-down; GST-tagged AMPKα1 or AMPKα2 affinity purified on Glutathione-Sepharose from HEK293 lysates (ELB buffer, 150 mM NaCl, 0.1% NP-40, overnight at +4 °C, five washes), western blot for PIAS proteins
[2] = target: GST–AMPKα1 (human), expressed in HEK293 cells (human) (UniProt Q13131); experiment: as above
[3] = target: endogenous AMPKα1 of immortalized MEFs (mouse (endogenous in MEFs)) (UniProt Q5EG47); experiment: co-IP; lysates of immortalized MEFs (IP lysis buffer, 1% Triton X-100, 150 mM NaCl); IP with antibodies against AMPKα1 or AMPKα2 and protein G-Sepharose, control IgG and AMPKα1−/−;α2−/− MEFs as controls; western blot for PIAS4; all proteins endogenous
[4] = target: endogenous AMPKα2 of immortalized MEFs (mouse (endogenous in MEFs)) (UniProt Q8BRK8); experiment: as above

| Molecule | binding [1] | binding [2] | binding [3] | binding [4] |
| --- | --- | --- | --- | --- |
| PIAS1 in HEK293 cells (pull-down with GST–AMPKα) (from UniProt O88907 1-651) | no binding | no binding | – | – |
| B1 | binds | binds | – | – |
| B2 | binds | binds | – | – |
| B3 | – | – | binds | binds |
